# Laboratory results from PMC6212790.
# The list shows a part of the results. At the low end of the ranking the order means little.
# Target: T1, GST-Rok (full length) (UniProt O34857)
# T1 sequence: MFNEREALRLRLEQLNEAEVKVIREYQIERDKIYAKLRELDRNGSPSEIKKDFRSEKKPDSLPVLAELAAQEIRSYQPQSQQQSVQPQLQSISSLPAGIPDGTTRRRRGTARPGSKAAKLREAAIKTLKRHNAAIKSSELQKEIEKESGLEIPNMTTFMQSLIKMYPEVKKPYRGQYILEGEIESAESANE
# Experiment: protein binding microarray;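 note: rank score from −0.5 (least bound) to 0.5 (best bound)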
# Conditions: Rok is a gene silencer of Bacillus subtilis; high values mean tight binding; most listed sequences are background and not binding sites; double strand, one strand shown
row,Sequence,binding signal [E-score]
1,AACGGAAT,0.105
2,AAATAGCC,0.046
3,GACCGGGA,-0.108
4,GGTTCTGA,-0.0282
5,GGTTAATA,0.19
6,CTGCGTGA,0.0471
7,ACCGTCCA,-0.0837
8,ACGTTGTA,0.206
9,AACCTGAG,-0.0585
10,CGCGGCGA,-0.233
11,GAACAGTC,-0.0967
12,CTCTAAAG,-0.164
13,ACACTCAC,0.0332
14,ATACCCGG,-0.0173
15,AGATGAAC,0.165
16,GGATATTA,0.161
17,GAAATACA,0.184
18,AGGCTGCG,-0.255
19,GAGCGACC,-0.147
20,TCTGGGCA,-0.121
21,GTTAAATA,0.312
22,GGGTGTAA,-0.0569
23,AGGAGCCT,-0.345
24,CCCAAACC,-0.181
25,ACAAACTC,0.155

row,Sequence,binding signal [E-score]
1,ACTGATTA,0.208
2,ATGATGTA,0.227
3,CTACGGCC,-0.112
4,GTCCTCTA,-0.305
5,GCAAGGGC,-0.263
6,ATGAAATA,0.216
7,AGGAGTTC,-0.0915
8,ACGCGCTA,0.188
9,ACTTGCGC,0.13
10,CGATACCC,-0.231
11,CGACCCAC,0.0766
12,AAGGGGCT,-0.489
13,AGTGAGAC,-0.0988
14,GAAAGCGC,-0.187
15,ACCCCGAG,-0.327
16,CCGTAAAC,0.0136
17,ATACCAGA,0.0105
18,CTGGGAAG,-0.169
19,ATGATACG,0.0857
20,GCTTGAAA,0.0577
21,ATAGTAGG,0.289
22,CTGTGAAG,-0.0881
23,CCGCACGC,-0.251
24,ATAGCATC,0.191
25,CTAACTAA,0.29

row,Sequence,binding signal [E-score]
1,ACGGGTAC,0.00633
2,ATGCGTCC,-0.0272
3,ACCCAACG,0.0103
4,ATCCCCAC,-0.383
5,ATCTCATG,0.183
6,AGAATTAT,0.245
7,GTCCCAAA,-0.167
8,GGACCCAA,-0.313
9,GCGTAAGA,0.0335
10,CTTGCGGA,-0.0954
11,GGACTCCA,-0.19
12,CCGCTCAA,-0.185
13,AGAGCCAG,-0.196
14,GGACTTGA,-0.0412
15,GATACATC,0.186
16,GAACGATA,0.236
17,GCTCCGCA,-0.2
18,ACACAGCT,-0.0133
19,CCGGTTCA,-0.174
20,CCTAGTGC,-0.0964
21,AGTACGAG,0.0692
22,CCTAGAGC,-0.0531
23,ATCGCGAT,0.287
24,CACGATCC,-0.0502
25,CGCATGGC,-0.286

row,Sequence,binding signal [E-score]
1,GGTCTAGA,-0.0272
2,CAACACGG,0.0643
3,GGGCCTCA,-0.215
4,ATTTAAGA,-0.00721
5,AGATCATA,0.165
6,ATGTCTGG,-0.215
7,CGCCCTCA,-0.342
8,AACAACAT,0.0889
9,AATTACTA,0.434
10,CCCTCGGC,-0.336
11,GATTGAGA,-0.0925
12,GAGAGGGC,-0.42
13,CTGTTTGC,-0.272
14,ACGTTCGC,-0.0889
15,ATAAGAAT,0.244
16,GTCAACGA,-0.0371
17,CGTACGCC,0.0878
18,ACGCGCAT,-0.0825
19,CGCCTCTA,-0.131
20,AAGGTGTG,-0.104
21,CGGCATCC,-0.302
22,AGACCTTC,-0.169
23,GGTTTGAC,-0.136
24,AGAACCTC,-0.138
25,AAGTTGAC,0.0694

row,Sequence,binding signal [E-score]
1,CGGAAAAA,-0.052
2,GGTGCGAC,-0.248
3,CCCGGCCC,-0.387
4,GGCTCATA,-0.336
5,AGTTGTGC,0.157
6,GGCGCTTA,-0.109
7,GGCATCTA,-0.0204
8,TACGCACA,0.21
9,AGTAACAC,0.281
10,CTTTTACA,0.0852
11,TCAACTCA,-0.0186
12,AAGTAGCC,0.14
13,CAGTCACG,-0.0672
14,CAATGCGC,0.0244
15,GTTAAAAA,0.127
16,CTGCTGCA,0.019
17,AGCCAAAA,0.0252
18,CCACCCTC,-0.266
19,AATACTAG,0.341
20,AGCCGATC,-0.154
21,AGAAAGGC,-0.0301
22,GCTGCCCA,0.0246
23,ATTAGGTC,0.0813
24,TATACCGA,0.215
25,ATCAGAAA,0.0773

row,Sequence,binding signal [E-score]
1,CATGGCAA,-0.0187
2,ACGAGTCC,-0.192
3,AGGGCGGC,-0.355
4,TACGGGAA,0.124
5,AGAGTGGA,-0.109
6,GGACTGAC,-0.299
7,CGGTATTC,0.245
8,CCGTGCCC,-0.325
9,CATCGCAG,-0.277
10,GCCCTTGA,-0.391
11,CACGACTG,-0.0627
12,AACCAGCA,-0.00149
13,TACGGTAA,0.315
14,CAACCTCA,0.0127
15,GATGGGGA,-0.176
16,CGTACCCA,-0.00953
17,CGCTGTCA,-0.125
18,AATATACC,0.394
19,GTAAACTA,0.351
20,ACTCGTCG,-0.043
21,CTTCATCC,-0.154
22,ATTCGTAC,0.135
23,CGCCGGAA,-0.0419
24,CTGATAAA,0.0763
25,AATTTAGT,0.163

row,Sequence,binding signal [E-score]
1,CAGGCATA,0.0553
2,GCGATCCC,-0.257
3,AACTGTGG,-0.041
4,TGCGGGAA,-0.19
5,TCGAAGCA,-0.0477
6,CACGAGGC,-0.2
7,AACGGTAG,0.276
8,AGGAATCC,-0.168
9,AGGTTGGC,-0.0479
10,AGCACTAG,0.0456
11,GGATCCTA,0.0769
12,AGACCCCG,-0.383
13,TTGGCAAA,-0.0481
14,AGTCAGCC,-0.00495
15,ATTCCTAC,0.201
16,CGTATATA,0.28
17,AAAGGTGG,-0.19
18,AAACCTCG,-0.0155
19,GCGCGGTA,0.073
20,CATTAACC,0.0213
21,AACCAAGC,0.104
22,AATGAAAC,-0.0809
23,GAGGACAC,-0.116
24,ACTTTTTC,0.146
25,GGGAGAGA,-0.149

row,Sequence,binding signal [E-score]
1,CTGATTAA,0.124
2,CGGTACCC,-0.286
3,ACCGAAGT,-0.00304
4,GTCTAGCA,-0.0242
5,ATGACGCG,-0.104
6,AAAACTTC,0.0994
7,AAGCGCAG,-0.165
8,GGATGCCC,-0.367
9,CCGAACGG,-0.247
10,GTGCTGAA,-0.00688
11,TGATTCCA,0.0823
12,GTCAAGAC,-0.0441
13,CAGCCTAA,-0.148
14,GTTTATTA,0.168
15,AAGATCTG,0.126
16,AGAGTAGC,0.0708
17,GAGATGCC,-0.0956
18,CAGAGGCA,-0.108
19,AATTCCCC,-0.14
20,AATGAAGA,-0.0815
21,GGAAAAAC,0.0826
22,CTGCTTAA,-0.089
23,ACTTGACA,0.18
24,CGACGGCG,-0.29
25,CTGAATTA,0.134

row,Sequence,binding signal [E-score]
1,ACGGACAT,-0.0802
2,AAGGAGCT,-0.0806
3,ATGAGCTG,-0.0991
4,AGGAGACT,-0.294
5,CTGCCCTC,-0.386
6,ATGTGTGG,0.149
7,GTGATTGA,-0.0998
8,GATCTAGC,0.208
9,CCCAGAGA,-0.159
10,GCCCAAGA,-0.318
11,CAGTCTCC,-0.205
12,AATGACTG,0.0286
13,AATATGAT,0.241
14,AAATGTCT,0.0294
15,CAGTTCCC,-0.29
16,CAAGCCAA,-0.0857
17,GATAACGA,0.135
18,CGCTAACC,-0.136
19,AGACCATG,-0.241
20,CTGAATTC,-0.0746
21,CATCATCG,-0.11
22,ACTACTCC,0.284
23,AATCTTGA,0.137
24,GTCCCTAA,-0.0585
25,GGGAGGCA,-0.33

row,Sequence,binding signal [E-score]
1,AGTTCTAC,0.383
2,TCGCGCGA,0.13
3,ATCTTGGA,0.0863
4,GGGCGAGA,-0.174
5,GTTATGTA,0.269
6,ACATGATA,0.276
7,ATATACCA,0.411
8,CGTTAACG,0.062
9,AGCGACTG,0.119
10,CCCGAGAG,-0.383
11,CCGGAGGC,-0.344
12,CGGATCAA,-0.127
13,TAGATCAA,0.169
14,CTACCTAA,0.22
15,CAAAGTGA,0.0257
16,ACATATAG,0.193
17,CGCAATGA,0.0568
18,CGCGTCAA,-0.106
19,AGGACAGG,-0.183
20,AGCTTTAA,0.181
21,AGAGGCTA,-0.0665
22,AAGTCGCT,0.015
23,TAGCTCGA,0.134
24,GCATGAGA,0.126
25,CAGAGGTC,-0.202

row,Sequence,binding signal [E-score]
1,CGTGAGTA,0.029
2,GTCACATA,0.212
3,ACGTTCCG,-0.176
4,AAAGAATC,0.0509
5,AGTCACGC,-0.166
6,ACTTGCTC,-0.202
7,CATCTCTA,0.00699
8,TCAACCCA,-0.134
9,CCCGACAC,-0.263
10,GCGAGGTA,0.063
11,AACTTAGC,0.205
12,CGCGGTGA,-0.247
13,CCCGGTTC,-0.283
14,ACAATCCC,0.147
15,CAGCCATC,-0.162
16,AGAACAAC,-0.0548
17,CCATTTAC,0.0848
18,GTTCGTCA,-0.0591
19,AATCGCCT,-0.0616
20,ACATTGCT,0.0806
21,ATGCCCTC,-0.397
22,GGCGTGGA,-0.34
23,AAATGGAC,-0.143
24,GTTTTTAA,-0.00933
25,GAGCCTCA,-0.268

row,Sequence,binding signal [E-score]
1,GTTGCTCA,0.0357
2,CATTGCGA,0.11
3,TACCTCCA,0.145
4,GTAGCTCA,0.0872
5,ACGAAGGG,-0.272
6,AGCATGTG,0.0341
7,GCACCCAA,-0.267
8,AGCAATTG,0.293
9,ATGTCACC,0.171
10,AGATATGC,0.177
11,CGTAGAAG,0.128
12,AACCCGCG,-0.135
13,CATCCGAC,-0.168
14,AACCAGCG,0.0565
15,GGTATTAA,0.27
16,AACCCAAA,-0.0729
17,CTGCAATC,-0.145
18,CACACCGG,-0.295
19,CCTTCGGC,-0.238
20,ACGTGTCT,0.0579
21,GTAGGACA,-0.0926
22,GGACTACA,0.136
23,ACGTTCTA,0.188
24,CAGGTGGC,-0.305
25,GCACATGC,-0.0134

row,Sequence,binding signal [E-score]
1,CCTCCCGC,-0.27
2,CAAGCCGA,-0.123
3,ACGCACAC,-0.0734
4,AGCTGCGG,-0.197
5,CACTTAAA,-0.125
6,AGGTTAAC,0.0563
7,ACTTAGCC,0.0219
8,GTGACTGA,-0.0854
9,TGAGCTCA,-0.278
10,AAGGCCCT,-0.337
11,CTGGATAA,-0.122
12,ATGACTCA,-0.102
13,ATGCGTGG,-0.191
14,AATAGGCA,-0.096
15,AGCGATCA,-0.032
16,GTTGGTCA,-0.114
17,ACAATATG,0.139
18,CAATGGTA,0.322
19,GAATTTAA,0.0678
20,ATGAGAAA,0.145
21,AGAAGGTG,-0.155
22,GAGGAATA,-0.0643
23,ATGAAACG,-0.0665
24,GCTGAGAC,-0.14
25,GGTTGTAC,0.114

row,Sequence,binding signal [E-score]
1,ATATAACG,0.277
2,GGCGGTAA,-0.0185
3,ATAGGGTG,0.0336
4,ATAGCGGG,-0.229
5,GGATCCGA,-0.152
6,AGCGAACG,-0.178
7,ACGTCAAC,-0.0365
8,GCGACCAA,0.0439
9,AACGCAGC,-0.0877
10,AATAAGAA,0.209
11,AAGTGCAT,-0.0691
12,CATCCTAC,0.177
13,CACAGCGG,0.083
14,ATAGTAGA,0.346
15,AAGCCGCA,-0.251
16,GACGGCCC,-0.234
17,GTATCAAA,0.14
18,AGCGAAAT,0.133
19,AATCTGCG,0.12
